According to the supplement of paper PMC4996465:

Columns and labels:
KB3-1 [1] = assay: viability (% of DMSO control); higher = more viable cells
Protocol: (§1)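 Eleven-dose screen of the NCATS MIPE 3 library on cells without co-treatment; CellTiter-Glo after 48 h, as % of DMSO wells.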

Nalm-6 [2] = assay: as above
Protocol: as §1

KB3-1 [3] = assay: log AC50 of viability decrease (48 h) (log10 M); higher = less potent
Protocol: (§2)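 Eleven-dose screen of the NCATS MIPE 3 library on cells without co-treatment; CellTiter-Glo after 48 h. AC50 from the curve fit; only inhibitory curves of the better fit classes are listed.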

Nalm-6 [4] = assay: as above
Protocol: as §2

Sc1ncnc2[nH]cnc12 [6-mercaptopurine]
Conditions | log AC50 of viability decrease | viability [%]
KB3-1 [1], 0.00156 µM | – | 108
KB3-1 [1], 0.00468 µM | – | 113
KB3-1 [1], 0.014 µM | – | 99.9
KB3-1 [1], 0.0421 µM | – | 104
KB3-1 [1], 0.126 µM | – | 106
KB3-1 [1], 0.379 µM | – | 85.4
KB3-1 [1], 1.14 µM | – | 40.5
KB3-1 [1], 3.41 µM | – | 30.3
KB3-1 [1], 10.2 µM | – | 28.5
KB3-1 [1], 30.7 µM | – | 30.1
KB3-1 [1], 92.2 µM | – | 27
Nalm-6 [2], run: 1, 0.00156 µM | – | 119
Nalm-6 [2], run: 1, 0.00468 µM | – | 125
Nalm-6 [2], run: 1, 0.014 µM | – | 117
Nalm-6 [2], run: 1, 0.0421 µM | – | 110
Nalm-6 [2], run: 1, 0.126 µM | – | 107
Nalm-6 [2], run: 1, 0.379 µM | – | 71.5
Nalm-6 [2], run: 1, 1.14 µM | – | 23.2
Nalm-6 [2], run: 1, 3.41 µM | – | 21.9
Nalm-6 [2], run: 1, 10.2 µM | – | 20.2
Nalm-6 [2], run: 1, 30.7 µM | – | 18.5
Nalm-6 [2], run: 1, 92.2 µM | – | 10.7
Nalm-6 [2], run: 2, 0.00156 µM | – | 109
Nalm-6 [2], run: 2, 0.00468 µM | – | 106
Nalm-6 [2], run: 2, 0.014 µM | – | 102
Nalm-6 [2], run: 2, 0.0421 µM | – | 108
Nalm-6 [2], run: 2, 0.126 µM | – | 95.6
Nalm-6 [2], run: 2, 0.379 µM | – | 86.4
Nalm-6 [2], run: 2, 1.14 µM | – | 40.3
Nalm-6 [2], run: 2, 3.41 µM | – | 30.5
Nalm-6 [2], run: 2, 10.2 µM | – | 26.7
Nalm-6 [2], run: 2, 30.7 µM | – | 26.7
Nalm-6 [2], run: 2, 92.2 µM | – | 19.6
Nalm-6 [4], run: 1 | -6.42 | –
Nalm-6 [4], run: 2 | -6.22 | –

Conditions | log AC50 of viability decrease
KB3-1 [3] | -6.22

COC[C@H]1OC(=O)C2=COC3=C2[C@@]1(C)\C4=C(C5CCC(=O)[C@@]5(C)C[C@H]4OC(C)=O)/C3=O (stereo partly drawn) [17_-hydroxy Wortmannin]
Conditions | log AC50 of viability decrease | viability [%]
KB3-1 [1], 0.00078 µM | – | 105
KB3-1 [1], 0.00234 µM | – | 103
KB3-1 [1], 0.00702 µM | – | 103
KB3-1 [1], 0.0211 µM | – | 104
KB3-1 [1], 0.0632 µM | – | 99.7
KB3-1 [1], 0.19 µM | – | 99.3
KB3-1 [1], 0.569 µM | – | 95.3
KB3-1 [1], 1.71 µM | – | 91
KB3-1 [1], 5.12 µM | – | 90.8
KB3-1 [1], 15.4 µM | – | 82.2
KB3-1 [1], 46.1 µM | – | 64.8
Nalm-6 [2], run: 1, 0.00078 µM | – | 111
Nalm-6 [2], run: 1, 0.00234 µM | – | 104
Nalm-6 [2], run: 1, 0.00702 µM | – | 104
Nalm-6 [2], run: 1, 0.0211 µM | – | 110
Nalm-6 [2], run: 1, 0.0632 µM | – | 98.3
Nalm-6 [2], run: 1, 0.19 µM | – | 88.9
Nalm-6 [2], run: 1, 0.569 µM | – | 75.7
Nalm-6 [2], run: 1, 1.71 µM | – | 57
Nalm-6 [2], run: 1, 5.12 µM | – | 45.5
Nalm-6 [2], run: 1, 15.4 µM | – | 40.1
Nalm-6 [2], run: 1, 46.1 µM | – | 9.31
Nalm-6 [2], run: 2, 0.00078 µM | – | 110
Nalm-6 [2], run: 2, 0.00234 µM | – | 111
Nalm-6 [2], run: 2, 0.00702 µM | – | 122
Nalm-6 [2], run: 2, 0.0211 µM | – | 121
Nalm-6 [2], run: 2, 0.0632 µM | – | 112
Nalm-6 [2], run: 2, 0.19 µM | – | 105
Nalm-6 [2], run: 2, 0.569 µM | – | 88.9
Nalm-6 [2], run: 2, 1.71 µM | – | 69.3
Nalm-6 [2], run: 2, 5.12 µM | – | 58.5
Nalm-6 [2], run: 2, 15.4 µM | – | 41.7
Nalm-6 [2], run: 2, 46.1 µM | – | 6.74
Nalm-6 [4], run: 1 | -5.38 | –
Nalm-6 [4], run: 2 | -5.23 | –

Conditions | log AC50 of viability decrease
KB3-1 [3] | -4.78

COC(=O)C\1=C(C)\N\C(=C(/[C@@H]1C2=CC(=CC=C2)[N+]([O-])=O)C(=O)OCCCN3CCC(CC3)(C4=CC=CC=C4)C5=CC=CC=C5)C [(S)-(+)-Niguldipine]
Conditions | log AC50 of viability decrease | viability [%]
KB3-1 [1], 0.00078 µM | – | 97.5
KB3-1 [1], 0.00234 µM | – | 101
KB3-1 [1], 0.00702 µM | – | 97.5
KB3-1 [1], 0.0211 µM | – | 104
KB3-1 [1], 0.0632 µM | – | 99.8
KB3-1 [1], 0.19 µM | – | 100
KB3-1 [1], 0.569 µM | – | 94.5
KB3-1 [1], 1.71 µM | – | 95.7
KB3-1 [1], 5.12 µM | – | 90.2
KB3-1 [1], 15.4 µM | – | 86.9
KB3-1 [1], 46.1 µM | – | 0.761
Nalm-6 [2], run: 1, 0.00078 µM | – | 103
Nalm-6 [2], run: 1, 0.00234 µM | – | 101
Nalm-6 [2], run: 1, 0.00702 µM | – | 100
Nalm-6 [2], run: 1, 0.0211 µM | – | 109
Nalm-6 [2], run: 1, 0.0632 µM | – | 109
Nalm-6 [2], run: 1, 0.19 µM | – | 116
Nalm-6 [2], run: 1, 0.569 µM | – | 114
Nalm-6 [2], run: 1, 1.71 µM | – | 105
Nalm-6 [2], run: 1, 5.12 µM | – | 93.6
Nalm-6 [2], run: 1, 15.4 µM | – | 72.4
Nalm-6 [2], run: 1, 46.1 µM | – | 1.66
Nalm-6 [2], run: 2, 0.00078 µM | – | 94.4
Nalm-6 [2], run: 2, 0.00234 µM | – | 105
Nalm-6 [2], run: 2, 0.00702 µM | – | 101
Nalm-6 [2], run: 2, 0.0211 µM | – | 107
Nalm-6 [2], run: 2, 0.0632 µM | – | 105
Nalm-6 [2], run: 2, 0.19 µM | – | 112
Nalm-6 [2], run: 2, 0.569 µM | – | 103
Nalm-6 [2], run: 2, 1.71 µM | – | 90.8
Nalm-6 [2], run: 2, 5.12 µM | – | 78.8
Nalm-6 [2], run: 2, 15.4 µM | – | 46.9
Nalm-6 [2], run: 2, 46.1 µM | – | 2.32
Nalm-6 [4], run: 1 | -4.73 | –
Nalm-6 [4], run: 2 | -4.78 | –

Conditions | log AC50 of viability decrease
KB3-1 [3] | -4.58

Viability of KB3-1 and Nalm-6 cells after 48 h of drug alone (CellTiter-Glo), 11 doses over about 4.5 log units. % of DMSO wells, lower = more cell loss; AC50 from the fitted curve, lower = more potent. No active / inactive call. Nalm-6 was screened in two runs. AC50 is listed only for well-fitted inhibitory curves. KB3-1 is a HeLa-derived carcinoma line, Nalm-6 a B-cell precursor leukaemia line.
